Measurements from the supplement of paper PMC11417369.
This is one part of the list.

The sequences below were run on PfHDP1 homeodomain (GST-tagged) (assay: gcPBM binding intensity (ln(normalized median fluorescence intensity)); higher = stronger DNA binding).
In short: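 Using an Agilent 4 × 180k array, primer-extended double-stranded 36-bp intergenic genomic probes and negative controls were exposed for 1 h to GST-fused P. falciparum DNA-binding domains expressed in E. coli. Binding was carried out in 1× PBS with 1% milk, 0.2 mg/ml BSA, 0.5% salmon testes DNA and 0.03% Triton X-100, and protein was detected with Alexa488 anti-GST antibody and a 488 nm scan. Binding intensity is the highest Masliner-normalised natural-log median intensity across replicate spots of either probe orientation.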

Row | Sequence | gcPBM binding intensity (ln)
1 | ATTATTATATTCAAATGTACTTAATAAACATTTTAA [XGTACX_site3023] | 6.39
2 | TAATAATATATAAAAAGTACATAACAAGATATGAAA [XGTACX_site4921] | 6.39
3 | ATATATTTTTTTTTTTCACACATTAGGATTCATATA [CACACA_site5758] | 6.59
4 | GAAAATAACTAAAATTGTACAAAGAAACATATATTT [XGTACX_site6484] | 6.75
5 | AGAAAAAAATAATCATCACACACGGAGAATGTCCAA [CACACA_site2314] | 6.28
6 | TATTAAAGCACCCATGCACACACACTAAGGAAAAGA [CACACA_site7961] | 8.48
7 | TATATATATCTGTATACACACATACAAATATGTAAA [CACACA_site5950] | 6.71
8 | GATATTCATTATATATGTACATATATGTAATATATA [XGTACX_site2210] | 6.57
9 | TTTTGTTAAAAAGATGTATATTTTATAAATATTTAT [CACACA_negctrl_site101] | 5.95
10 | AAATAAAATAAATAATATAAAATAATATATAAAAAA [CACACA_negctrl_site1777] | 6.15
11 | CACAAACAAAAACACACACACACACCGACAAAAATG [CACACA_site5362] | 6.79
12 | TTCTTTCTAGAATATTGTACATATATTGTTATTATA [XGTACX_site8425] | 6.61
13 | AGAAAGAAGATATATACACACAAAAAAAGATATATA [CACACA_site6779] | 6.75
14 | TATAAATATTTATACACACACACATTAATACCTATA [CACACA_site7604] | 7.07
15 | AAAAGAAGATAATACAGTACAGAATAATATAAAATA [XGTACX_site5962] | 6.51
16 | ATAAGAATCATATTTAAACACACATACATATATATA [CACACA_site9106] | 6.92
17 | AAAAAAAAAAAATACACACACATAAAAAAAAAAATA [CACACA_site1858] | 6.54
18 | ATTATATTAACAATGACATGCAATTCTTAATCCTTA [TGCATGCA_site648] | 6.58
19 | ATTAAATAAACCATTACACACTTTTATGTTTTGAAA [CACACA_site1143] | 6.56
20 | TTTTTATTGGTGAATACACACGTATATATATATTAT [CACACA_site8756] | 7.12
21 | AAAAAAAAATTGTGTACACATAATTATATCATATGT [CACACA_site4500] | 6.76
22 | ATGGATAATAAGTTTACACACAAAAAAAAAGAAAAA [CACACA_site861] | 6.42
23 | ATTTAAAAAATATATTGTACATATTTTATTATGTTT [XGTACX_site2984] | 6.4

Row | Sequence | gcPBM binding intensity (ln)
24 | TACAGTTTTTCTTTGAATTTATCAAGTTTTTTTCCC [XGTACX_negctrl_site60] | 6.59
25 | TAGTTACCTTAATATTGTACTTTTCTTTCATATATG [XGTACX_site1309] | 6.47
26 | CACTAAATAAGGAAAGTGCATAAAATAAAGGTTATA [GTGCAC_site9793] | 7.99
27 | GTGTCAAATTTTATAACACACAAAAGGTTATATAAG [CACACA_site7839] | 6.3
28 | ATAGTTTCTGGTAGCTGTACGAGTCGTAGAGTGCAG [XGTACX_site2022] | 6.83
29 | GTCGAGGATATATAAAGTACATATATATATATGATA [XGTACX_site1128] | 6.41
30 | TAATGTATCTAAAATTGTACAAATATAAATATAAAT [XGTACX_site2764] | 6.54
31 | CATACATATAAACACACACACACACCCACCCACAAA [CACACA_site8059] | 7.88
32 | TAGTTAGCCCAAGGGGTGCTAATTACTATCTAAATA | 5.8
33 | TATAGAAGCAAATTATGTACACAATATGGAAAATCA [XGTACX_site3345] | 7.04
34 | AACACCAATTCATATGCACACACATCTGCATATTAT [CACACA_site8523] | 9.74
35 | TTTATAAATATTCTCACACACTTTTTATTTTAACAA [CACACA_site6454] | 6.4
36 | ATGAATAAATAAGACACACACGAAAATAAGTAAAAA [CACACA_site4216] | 7.43
37 | TATTTTGATTATTCAGTGTATAAATATATATATATA [CACACA_negctrl_site545] | 8.78
38 | TATTTATACCTATACACACACACACGGATATTTATA [CACACA_site7123] | 7.03
39 | ATATGCTTATTGTAAAGTACATTATTATTTTTCCTA [XGTACX_site5479] | 6.29
40 | AATTAACAAAAACACACACACACACCGACAAAAAAA [CACACA_site4444] | 6.81
41 | GATAAAATCACTGGTGCATGTAGATATATAATATTA [TGCATGCA_site589] | 8.28
42 | TACAAATATATATGCACACACATATACATACAGATA [CACACA_site5238] | 9.83
43 | CATATATACGCATACACACACACACCCACACCCACA [CACACA_site1725] | 7.11
44 | TGATGAAAATCTACATGAATGTTTTTATATCTATAT [GTGCAC_negctrl_site139] | 5.92
45 | AATAAATATATACATTGTACATATATAATATATATA [XGTACX_site1458] | 6.63
46 | TAAATTATAATATGCACACAAAATGTTATATTAAAA [CACACA_site376] | 9.55

Row | Sequence | gcPBM binding intensity (ln)
47 | TATATATATTTTGGCTGTACATCAGCGTATATTTTT [XGTACX_site3233] | 6.18
48 | CCTATCCATGCATATACACACATATCTATTTATATA [CACACA_site6886] | 7.5
49 | AAAAAAAAACAAAAAAGTACAAAATAAAAATACGTT [XGTACX_site4566] | 6.62
50 | CTCTTCATATATAATTGTACACACAAAAACGACATT [XGTACX_site4287] | 7.28
51 | ATTCTATATGAAAAATGTACAAATAAAAATTCTAAG [XGTACX_site8900] | 6.47
52 | CCAATGTTTTCTTGTGTACACATCATTAAAGAAAAA [CACACA_site5300] | 7.41
53 | CACGCATACAGACACACACACACACCGATATATATA [CACACA_site8113] | 7.12
54 | CATGAAAATATTATGTGTACTTAATGCACATTCAAA [XGTACX_site1952] | 9.56
55 | ATTTACCTATATATTTGTACTTACATAATGCTACCT [XGTACX_site2693] | 6.97
56 | AATATATTGTTTCCTGATATTAAATTCAATTTAATG [GTGCAC_negctrl_site22] | 6.52
57 | TAAAGAGAGACATCAACACACATACGTATGTATAGA [CACACA_site4896] | 6.66
58 | TAAAAAAAAATATATAAACACACATATTTATATACA [CACACA_site8469] | 6.08
59 | AAATTATATACCACAGTGCAAAAGGCAGGTATACGT | 9.18
60 | TATTATTTTAAGATTGTTTATGTAAAGAATTATGAA [CACACA_negctrl_site445] | 6.02
61 | TTTTTTTTTTTTTGCACACACATATATAAATATATA [CACACA_site3949] | 9.41
62 | TATATTGCAAAAAGTACACACATAAATAAATACATA [CACACA_site6589] | 9.04
63 | GTAGAGAAAAAAATGTGGACACAAAAAATAAAAAGG [XGTACX_site4058] | 7
64 | CAGGAGAGAAAATATCGTACAAGCAAAAATAAGTGG [XGTACX_site8557] | 6.91
65 | ATAAATATTATTTTACGTACATATTTATGAAGTATT [XGTACX_site8746] | 6.13
66 | AAATTATAAAAATGTAGTACAGACAATATATTCGTA [XGTACX_site8307] | 6.72
67 | GTTTATATGTTCATAGTGCATATATGTTGATTTATT | 8.56
68 | TATAAAAAAAAAAAAAAAAAAAAAAAAAAAAAAAAA [TGCATGCA_negctrl_site42] | 6.37
69 | TTTTTTTTTTTTTACTGTACTTAATAAGATTGAATA [XGTACX_site2384] | 6.35

Row | Sequence | gcPBM binding intensity (ln)
70 | AGTGAATATTACGAAACACACAAAAAAATACATTTC [CACACA_site511] | 6.55
71 | TAACTTAATAAAAAAAGTACATATATTTTTAATAAA [XGTACX_site2707] | 5.9
72 | AAATATAATAATACATTGCACATATATTATATATAT [TGCATGCA_negctrl_site611] | 9.33
73 | TGTAATAATCTTCATTTCTTTTTTTTTTTTTTTTGT [CACACA_negctrl_site1388] | 5.9
74 | CTACACACTTATAAATGTACAGGATTTAAGTATATG [XGTACX_site8245] | 6.36
75 | AGTAGTCTGGAGAAGAGTACATAGTATCTGGTAGCT [XGTACX_site2017] | 6.4
76 | TATTTATTTATTTTGTTATAATTAAAATGGATACAT [XGTACX_negctrl_site387] | 6.28
77 | ATAATACCAGAATAGATTTAAATGAATATTTTATTT [CACACA_negctrl_site476] | 5.91
78 | TATAACAAATAAAAATGTACATATATATAATATATA [XGTACX_site6173] | 6.53
79 | ATCTTATCATTTTAAAGTACATAATTAATTCTTTTT [XGTACX_site3999] | 6.69
80 | ATGATATATTTAATAGTGCACTAATTAAAATTATTA [GTGCAC_site9418] | 10.8
81 | TACAGTAAAAATAGTTGTACTTGTTTATTTCTTCTT [XGTACX_site7674] | 6.07
82 | AAAAGGATATATGAAAGTACAAAGGTATAGTATATT [XGTACX_site7385] | 6.91
83 | TTTTGATATATGAATATTAAGTTATATAATATTTTA [TGCATGCA_negctrl_site39] | 6.18
84 | ATGTGTTTGTATATATGTACATATTTATGTTATTTC [XGTACX_site6960] | 7.28
85 | TATATATATAAATACACACACACAAAAAAAAAAAAA [CACACA_site4930] | 6.82
86 | AATTTAATTGTGAGAGTGCGTACTGCTCCACATATA | 7.21
87 | AAAAAAAAAAAAAAAAAAAAAAAAAAATGAGATACA [GTGCAC_negctrl_site160] | 7.11
88 | TATTCAAAACGGTATTGTACAAATTTTATAATTTAA [XGTACX_site6928] | 6.3
89 | TGAACATTATAGAAAAGTACTTAGTTTTTAAAAAGA [XGTACX_site6864] | 6.75
